# Results from PubChem BioAssay AID504832 (National Center for Advancing Translational Sciences (NCATS), 2011).
# Among all 310,000 compounds or so, about 18,000 (5.8%) were called active. The inconclusive results got no clear call from the source; some entries with a clear call stand among them for comparison. The call rests on the fitted dose curve; in most records, active means well fitted inhibition curve with a large enough effect; inconclusive means small, poorly fitted or top-dose-only effect, or another doubt; inactive means no such curve, though single readings can be large or run the other way. No potency is given beside an inconclusive call; the fits are too rough.
# Experiment: Primary qHTS for delayed death inhibitors of the malarial parasite plastid, 48 hour incubation
# Settings: P. falciparum luciferase growth in erythrocytes; series mostly up to 28.7 µM; activity change, negative = inhibition: at the top concentration
# Outline: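 Luciferase-expressing P. falciparum in infected erythrocytes (2% hematocrit, 0.1% parasitemia final) in RPMI 1640/0.5% Albumax were exposed to compound for 48 hours at 37 C, 5% CO2; growth read as luminescence.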
# On the % scale 0 is the no-effect control and ±100 the full control effect; potency means the concentration at half of the fitted maximal effect; tags describe the fitted curve by direction and shape.
SMILES,"activity change, negative = inhibition",Potency
Cc1ccc2[nH]c(C(F)(F)F)cc(=O)c2c1,inactive: -8.12%,–
N#CCC(=O)Nc1ccc(C(=O)Nc2cccnc2)cc1,–,"inconclusive [inhibitor, partial curve, poor fit]"
COc1ccccc1C(CNC(=O)CSc1ccc2ccccc2c1)N(C)C (stereo not given),–,"inconclusive [inhibitor, partial curve, poor fit]"
O=C1C(=O)N(Cc2ccncc2)C(c2cccc(O)c2)/C1=C(\O)c1ccc2c(c1)OCCO2 (stereo not given),inactive: 49.8%,–
CC[N+]12CCC(CC1)C(C(O)(c1ccccc1)c1ccccc1)C2 (stereo not given),–,"inconclusive [inhibitor, partial curve]"
Cn1ncc(N=Cc2ccccc2)c1C(N)=O,inactive: 7.67%,–
CC(C)Sc1nc2c([nH]1)c(=N)ncn2Cc1ccccc1,–,"inconclusive [inhibitor, partial curve]"
O=C(NCC1CCCCC1)C1(CC2CC(c3ccc(Cl)cc3)=NO2)CCNCC1 (stereo not given),–,"inconclusive [inhibitor, partial curve, poor fit]"
O=Nc1c(O)n(Cc2ccccc2)c2ccccc12,inactive: -19.2%,–
CSc1nc(N2CCN(c3ccccc3Cl)CC2)c2ccccc2n1,–,"inconclusive [inhibitor, single point]"
COc1ccc([C@@H]2C[C@H](c3ccccc3)Oc3cc(C)cc(C)c32)cc1,–,"inconclusive [inhibitor, partial curve]"
COc1ccc(S(=O)(=O)N2c3cc(C)ccc3OCC2C(C)(C)C)cc1 (stereo not given),–,"inconclusive [inhibitor, partial curve, poor fit]"
CC(C)C(C(=O)Nc1nccs1)c1ccccc1 (stereo not given),–,"inconclusive [inhibitor, single point]"
COc1cccc(CNC(=O)CSc2ccc(-c3ccncc3)nn2)c1,–,"inconclusive [inhibitor, full curve, poor fit]"
COc1ccc(OC)c(C(c2nnnn2Cc2ccccc2)N2CCC(C(N)=O)CC2)c1 (stereo not given),–,"inconclusive [inhibitor, full curve, poor fit]"
CCOC1(OCC)C(c2ccc(Cl)cc2)C(C#N)(C#N)C1(OCC)OCC (stereo not given),inactive: 30.4%,–
Cc1ccc(N=C2NC(=O)S/C2=C\c2ccco2)cc1,–,"inconclusive [inhibitor, single point]"
CCc1cccc2c(=O)c(C(=O)N3CCCCCC3)c[nH]c12,inactive: 3.59%,–
O=C1NC(=O)C(CCc2ccncc2)(CCc2ccncc2)C(=O)N1CCc1ccc(F)cc1,inactive: -45.4%,–
O=C(Nc1c(O)c2ccccc2[nH]c1=O)c1ccco1,inactive: 12.8%,–
Cc1cc[n+](CC(=O)c2ccc(NC(=O)c3ccccc3)cc2)cc1,–,"inconclusive [inhibitor, single point]"
COc1cc(C2CC(=O)c3cnc(NC(=O)c4ccco4)nc3C2)cc(OC)c1OC (stereo not given),inactive: -1.93%,–
O=C(CC1(O)C(=O)Nc2cc(Cl)cc(Cl)c21)c1ccncc1 (stereo not given),inactive: -10.4%,–
O=C(NCc1ccccc1F)c1ccc(S(=O)(=O)N2CCCCCC2)cc1,–,"inconclusive [inhibitor, partial curve, poor fit]"

SMILES,"activity change, negative = inhibition",Potency
COc1cc(OC)c(OC)cc1CN1CCN(S(=O)(=O)c2ccc(F)cc2)CC1,–,"inconclusive [inhibitor, partial curve, poor fit]"
C=CCNC(=O)CC(=O)N/N=C/c1ccc(C(=O)OC)cc1,inactive: 16.9%,–
CC1=C(C(=O)OCC2CCCO2)C(c2ccc(Cl)c(Cl)c2)NC(=O)N1 (stereo not given),–,"inconclusive [inhibitor, full curve, poor fit]"
CCOc1ccc(NC(=O)CN(C)C(=O)c2ccc(N3CCCCCC3)c([N+](=O)[O-])c2)cc1OCC,–,"inconclusive [inhibitor, single point]"
COc1ccc(C2CCCN2C(=S)Nc2ccc(C)cc2C)cc1OC (stereo not given),inactive: -24.5%,–
COC(=O)c1cccc(N2CCCC2=O)c1,–,"inconclusive [inhibitor, single point]"
Cc1ccc(CC(=O)NCc2cccnc2)cc1,inactive: 11.7%,–
CCc1[nH]nc2c1C(C1C=CCCC1)C(C#N)=C(N)O2 (stereo not given),–,"inconclusive [inhibitor, partial curve, poor fit]"
Cc1ccc2c(CN(C)Cc3ccc(OC(F)F)cc3)cc(=O)oc2c1C,–,"inconclusive [inhibitor, single point]"
CCN(CC)C(=O)C1CCCN(c2ccc([N+](=O)[O-])cc2/C=N/NC(=O)c2cccc([N+](=O)[O-])c2)C1 (stereo not given),–,"inconclusive [inhibitor, full curve, poor fit]"
CCOC(=O)c1nn(-c2ccc(Cl)cc2)cc1O,inactive: 46.6%,–
CCCCc1nnc2c(N(C)S(=O)(=O)c3ccc(C)cc3)nc3ccccc3n12,–,"inconclusive [inhibitor, partial curve]"
O=C(c1c[nH]c2ccccc12)N1CCN(Cc2ccccc2)CC1,–,"inconclusive [inhibitor, single point]"
O=C(Cn1c(C(=O)N2CCN(C3CCCCC3)CC2)cc2sccc21)c1ccccc1,–,"inconclusive [inhibitor, single point]"
COc1cc2c(c(O)c1OC)C(=O)C(OC)CCC2 (stereo not given),–,"inconclusive [inhibitor, full curve, poor fit]"
Cc1cccc2sc(NC(=O)CCNC(=O)c3ccco3)nc12,–,"inconclusive [inhibitor, single point]"
Cc1cc(C)nc(N2CCCC(C(=O)Nc3nnc(C(C)(C)C)s3)C2)n1 (stereo not given),inactive: 13.3%,–
CN1C(=O)C(C)(C)c2cc(S(=O)(=O)N3CCN(c4ccccc4)CC3)ccc21,–,"inconclusive [inhibitor, partial curve, poor fit]"
Cc1ccccc1C(=O)Nc1ccc(C(=O)N/N=C/c2ccc(O)c(Br)c2)cc1,–,"inconclusive [inhibitor, partial curve, poor fit]"
CCCCNC(=O)CCC(=O)N1CCN(C(c2ccccc2)c2ccccc2)CC1,inactive: -25%,–
COc1ccc2[nH]c(C)c(CCNC(=S)Nc3ccccc3OC)c2c1,inactive: -2.15%,–
CN(C(=O)c1cc2c(s1)-c1ccccc1S(=O)(=O)C2)c1ccccc1F,–,"inconclusive [inhibitor, full curve]"
Cc1ccc(NC(=O)Cc2c[nH]c3ccccc23)cc1S(=O)(=O)N1CCCCCC1,–,active: 13.1 µM
COc1ccccc1-c1nc(SCC(=O)N2CCC(C(N)=O)CC2)n[nH]1,inactive: -11.2%,–

SMILES,"activity change, negative = inhibition",Potency
CCOc1ccccc1NC(=O)CCN1CCN(S(=O)(=O)c2ccc(Br)cc2)CC1,–,"inconclusive [inhibitor, single point]"
Cc1ccccc1OCC(=O)Nc1ccc(S(=O)(=O)N2CCOCC2)cc1,–,"inconclusive [inhibitor, single point]"
COc1ccc(-n2nc(C(=O)c3cccs3)cc(-c3nc4ccccc4[nH]3)c2=N)cc1,–,active: 3.29 µM
COc1ccccc1CNC(=O)CN1c2cccc3cccc(c23)S1(=O)=O,–,"inconclusive [inhibitor, single point]"
Cc1cc(C(=O)CSc2nnc(-c3cccc(F)c3)n2N)c(C)n1Cc1ccc2c(c1)OCO2,–,active: 11.7 µM
CCOC(=O)N1C2=NC(C(=O)OC)=C(C(=O)OC)[C@@H]3N(C)c4ccccc4[C@]23C[C@H]1C(=O)OC,inactive: 56.2%,–
CC1(OC(=O)C2CCCC2)C(=O)C=C2C=C(c3ccsc3)N(CC3CC3)C=C2C1=O (stereo not given),–,"inconclusive [inhibitor, single point]"
CC(OC(=O)c1cccnc1)C(=O)Nc1ccc2c(c1)OCO2 (stereo not given),–,"inconclusive [inhibitor, full curve]"
CCn1cc(C(=O)NCCN(C)C)c(=O)c2cc(F)c(N3CCN(C)CC3)cc21,–,"inconclusive [inhibitor, partial curve]"
CCc1ccccc1Nc1nc2ccccc2n1C,–,"inconclusive [inhibitor, partial curve, poor fit]"
NS(=O)(=O)c1ccc(NC2=CC(=O)C(=O)c3ccccc32)cc1,–,"inconclusive [inhibitor, single point]"
CCC(c1nnc(SCC(=O)Nc2ccc(Cl)cc2C(F)(F)F)n1C1CCCCC1)N(C)C (stereo not given),–,"inconclusive [inhibitor, single point]"
CCOC(=O)CC1C(=O)NCCN1C(=O)c1cccc(C(F)(F)F)c1 (stereo not given),–,"inconclusive [inhibitor, full curve, poor fit]"
CCOc1ccc(NC(=S)NNC(=S)Nc2cccc(C(F)(F)F)c2)cc1,–,"inconclusive [inhibitor, single point]"
Cc1ccc(CN2CC(C(=O)Nc3ccccc3N3CCCC3)CC2=O)cc1 (stereo not given),–,"inconclusive [inhibitor, single point]"
Cc1cc(C)c2oc(=O)cc(CN3CCOCC3)c2c1,inactive: -12.6%,–
Cc1cc(C(=O)CCC(=O)Nc2ncccc2O)c(C)s1,inactive: 26%,–
CC1CCN(S(=O)(=O)c2ccc3ncn(CC(=O)N(C)C4CCCCC4)c(=O)c3c2)CC1,–,"inconclusive [inhibitor, single point]"
c1ccc2c3c([nH]c2c1)CCNC3,–,"inconclusive [inhibitor, single point]"
CC(CCc1ccccc1)NCC(O)c1ccc(O)c(C(N)=O)c1 (stereo not given),–,active: 13.1 µM
COc1ccc(CC(=O)Nc2nnc(C(C)(C)C)s2)cc1OC,inactive: -14.5%,–
CN(C(=O)C(C)(C)C)c1ccc(OCC(=O)N2CCc3ccccc3C2)cc1,–,"inconclusive [inhibitor, single point]"
